# Experimental data from the supplement of paper PMC4466236.
# Whole data set: some 33,000 sequences, median “E-score (dimensionless, -0.5 to 0.5)” near -0.058, cut for the highest 2% near 0.35. This is one part of the list.
# System: MvaT
# Assay: PBM 8-mer E-score (mean of HK and ME arrays) (E-score (dimensionless, -0.5 to 0.5)); higher = stronger relative binding preference; most listed sequences are background and not binding sites
# Summary of the method: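 Reported values are rank-based E-scores, taken as the mean of two universal arrays and parsed with a custom script. Each 8-mer score falls between -0.5 and 0.5. The arrays, ME and HK, were double-stranded 60-mers with a constant 25-mer primer region and a variable 35-mer region covering all 8-mers. They were probed, by an earlier protocol, with full-length P. aeruginosa MvaT carrying an N-terminal glutathione S-transferase fusion.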
row,Sequence,PBM 8-mer E-score
1,AAAGGTTG,0.0116
2,CCTGACGC,-0.261
3,CAAAAATG,-0.00842
4,AGGACAGG,-0.186
5,TAATGTCA,0.23
6,GAAGATAC,0.0589
7,CCCACCCA,-0.0699
8,AACTAGGA,0.0115
9,CTATTTGA,0.229
10,AGAACTTC,0.0781
11,AACTATGG,0.00286
12,GCTAGGCC,-0.287
13,AGTATTAT,0.42
14,CACCGCGC,-0.165
15,AAGTTTAG,0.288
16,AGGGTTTG,0.0328
17,ATTCTGAA,0.16
18,CGGTTTGA,-0.00659
19,ATCACACG,-0.0544
20,GCGGCCGA,-0.256
21,CATCGTCC,-0.116
22,CAGGAGCA,-0.222
23,AGCGACTG,-0.115
24,TAAATAGA,0.291
25,ACACAGCA,-0.0223

row,Sequence,PBM 8-mer E-score
1,AAGACTGC,-0.0755
2,AGGCGATC,-0.221
3,AAGATCCC,-0.0739
4,ACCGCGAT,0.0861
5,GAGTTCAA,0.174
6,CCACATGC,-0.19
7,ATTACACA,0.318
8,CGTGGTGC,-0.224
9,ATTGGTGA,0.167
10,GGATGAGA,-0.174
11,CTGAATCC,-0.026
12,GGGCGGCA,-0.164
13,ACTTAGGG,0.0151
14,CGGTTTGC,-0.00207
15,AAAGATTG,0.242
16,GTCATTTA,0.24
17,CATGGTGC,-0.326
18,AGGAATCG,-0.147
19,CCGAGCGG,-0.278
20,AGCCTCAG,-0.144
21,GTGGCACA,-0.148
22,AGGTTGGC,-0.171
23,CAGGAGCC,-0.27
24,AGTGCGCA,0.13
25,ACTACGAT,0.122

row,Sequence,PBM 8-mer E-score
1,ATGCGCCG,-0.055
2,CCGATGAA,-0.12
3,TAGCCCGA,-0.104
4,CTGGTTCC,-0.183
5,GCCGGCGC,-0.243
6,CTTTTTTC,0.131
7,AGTGTACC,-0.0462
8,CCCGAAGC,-0.286
9,TACTGCCA,-0.0285
10,CACTTATG,0.12
11,GACCCAGA,-0.21
12,AGAGTCCT,-0.236
13,GATCCTGC,-0.176
14,ACCAGAGT,-0.0489
15,ATTAAAAC,0.301
16,GCGCCAAC,-0.00491
17,CGCGGGAG,-0.3
18,TCTTCTCA,-0.105
19,AACAGACA,0.209
20,AGATGCAA,-0.0752
21,AACAGCAG,-0.0475
22,GACAGACC,-0.131
23,CAATTCCG,0.0156
24,ATCACGAC,0.0339
25,CTGATCAG,-0.128

row,Sequence,PBM 8-mer E-score
1,AACAATAG,0.294
2,GCACTTGA,-0.141
3,CGTATCAA,0.0468
4,AGATTCTC,-0.114
5,ACATAAGA,0.191
6,ATTGTCGA,0.157
7,AATGCAGG,0.0774
8,CACATGTC,-0.051
9,ATGCGCTC,-0.152
10,ACACCTTA,-0.00487
11,TGATTCCA,0.0813
12,CGCTAGAA,0.0253
13,ATGGCGGG,-0.161
14,GCGTCTAA,-0.00904
15,AAATACTC,0.207
16,AGGTCGCG,-0.202
17,CGAGAGGC,-0.296
18,ACCTACCA,-0.0837
19,TCGTGGCA,-0.161
20,GCGCTTAA,0.147
21,CGACTTCC,-0.0647
22,CGGCAGCA,-0.175
23,AGACAAGG,-0.157
24,GTCCGCAA,0.0459
25,ATGGCAGG,-0.195

row,Sequence,PBM 8-mer E-score
1,GGAGTCAC,-0.129
2,GCCTTTCA,-0.0671
3,CGCAGCTC,-0.287
4,ATGGGCGA,-0.148
5,ACTATGAA,0.119
6,ATTTCACG,0.0183
7,AGACTAAG,0.111
8,ATTGAATC,0.122
9,AGAGAAGG,-0.122
10,CGGAACCC,-0.197
11,GAGCTTGA,-0.201
12,ACCTGCTA,-0.142
13,GCCTGGAC,-0.223
14,AAGGTTTC,-0.149
15,ACTTATCC,0.181
16,AGTTGAGG,-0.0417
17,ACTAACTG,0.191
18,GACATACA,0.0197
19,ACCCTCGG,-0.132
20,CATACTGA,0.0023
21,CATTTGTC,0.0407
22,GTAGAGGA,-0.107
23,GCCAGAGA,-0.135
24,CATGAGGG,-0.214
25,AAGGAGGA,-0.135

row,Sequence,PBM 8-mer E-score
1,GAAGGTTA,-0.0694
2,GCCACTGA,-0.0453
3,CCCTTGAG,-0.115
4,ATAACTTC,0.351
5,AACGTCTA,-0.174
6,CCATAACG,0.0305
7,GGAAAATA,0.192
8,GAGCCTGA,-0.248
9,AAATACCT,0.193
10,CCTATTGC,-0.203
11,CGACCTGA,-0.231
12,GATCCCAA,-0.0954
13,AAATTCTC,0.0718
14,GCATGGGA,-0.0461
15,ACACTGGA,-0.128
16,GCTGTATA,0.2
17,AATCAGCG,-0.0637
18,AACGCCGT,-0.147
19,CTTGGTGC,-0.111
20,CCTGCACA,-0.0695
21,ATGCATAA,0.296
22,CCCGGTAC,-0.251
23,ATGCATCC,-0.085
24,GAATCCTA,-0.0917
25,AACGGCAA,0.144

row,Sequence,PBM 8-mer E-score
1,GCGACCAA,-0.0335
2,CGCGTAAA,0.213
3,TCTCTTCA,-0.0241
4,AAAGCCTA,0.125
5,CTCCCCAG,-0.206
6,ATGTGTTA,0.258
7,TAGGTGAA,0.0588
8,CTAGGGCA,-0.187
9,AGTCTCGC,-0.0341
10,ACCCTAAG,-0.139
11,CATTCATA,0.173
12,CTCAGGGC,-0.28
13,CTGCCTCC,-0.303
14,TTAACCAA,0.236
15,GAAACGCA,-0.105
16,CCTCTCAC,-0.201
17,CACAGAAA,-0.0504
18,CCCAAGTC,-0.149
19,GACTATGA,-0.0673
20,CGGCATAA,0.202
21,CGTTGTGA,-0.0557
22,GTAGGAAC,-0.0612
23,GAATACCA,0.00319
24,AAAGGGGC,-0.289
25,AAGCCGGG,-0.164

row,Sequence,PBM 8-mer E-score
1,TCCCTACA,-0.156
2,ACATATCA,0.213
3,CTGGAAAG,-0.0706
4,CGAGTGGC,-0.232
5,CTATGGAA,0.0218
6,CTTCCGCA,-0.136
7,CTTGGTTC,-0.134
8,ACGTCGTC,-0.137
9,CACAATAC,0.052
10,AGCCAAAA,-0.0832
11,AGTTCGTA,0.179
12,TGCGTCCA,-0.219
13,ACCTTGGC,-0.222
14,CAAACATG,0.196
15,CCTCGGAA,-0.0536
16,CAAGCGAC,-0.157
17,ACTCATAG,-0.135
18,GCTTAGCA,-0.165
19,CCTCGTGC,-0.29
20,AACGATAG,-0.0547
21,ATACGTTA,0.296
22,CTAGCCCC,-0.21
23,ATCAGAGC,-0.171
24,GCACTAGA,-0.138
25,ACATGGAT,0.102

row,Sequence,PBM 8-mer E-score
1,AACTGCGT,-0.0481
2,CATCTTTA,0.24
3,AAAATTAT,0.355
4,ATAGTCCC,-0.0824
5,ATCCGGAA,-0.0227
6,AACGACAC,0.0139
7,ACCCTCTA,-0.242
8,GATGAACA,0.00916
9,CTTGTTTC,0.0315
10,ATCTTCAT,0.123
11,GTAGTCCA,-0.0481
12,CTCCTCAC,-0.208
13,GCTATCGA,-0.0886
14,AAAGGGTC,-0.125
15,AGGGCACG,-0.282
16,GCGCGGCA,-0.219
17,TACCGTAA,0.16
18,AGTCCAAT,0.0865
19,TCAACACA,0.011
20,CTCAATAA,0.307
21,CATAGATG,0.0192
22,GGAGAGCA,-0.258
23,GAGGGCGC,-0.389
24,GAGTTAAA,0.25
25,GGAAGGAC,-0.12

row,Sequence,PBM 8-mer E-score
1,GACGCAGA,-0.227
2,AAATTGCT,0.214
3,CGCAGCAA,-0.156
4,CCTGGGTC,-0.264
5,AGTTGATG,-0.0188
6,AAGTACAG,0.141
7,ATCTGAAG,0.00835
8,AATCGTTC,-0.119
9,CGTCCAAG,-0.161
10,ATCTTATC,0.114
11,TGTCTAAA,0.137
12,ACCCACAC,0.187
13,GGGCGCTA,-0.265
14,ATCCCAAG,-0.0779
15,ATTTGTTA,0.325
16,GAGATTAA,0.232
17,ACGGGCAG,-0.123
18,CCACAGTA,-0.0252
19,CATTAATG,0.34
20,AGAGGCTC,-0.288
21,AATATGCC,0.17
22,CTTGGTAC,-0.225
23,CTTTTCAC,-0.00227
24,CTGATTAA,0.278
25,GGGACTAC,-0.0607

row,Sequence,PBM 8-mer E-score
1,CAATGCAC,-0.00507
2,CGAGCGGA,-0.227
3,CAGTAATA,0.273
4,TGGTAACA,-0.0359
5,GAAAACGA,-0.0123
6,CTCAGAGC,-0.118
7,AAAAAAAT,0.227
8,GAGAAAAC,0.00227
9,AAATTACC,0.212
10,AGAGTAGC,-0.15
11,TATCAGAA,0.146
12,TCCGACCA,-0.131
13,CTGCAGTC,-0.0989
14,AATATAGT,0.398
15,ATATGAAA,0.279
16,ATAATTGG,0.308
17,GTATTATA,0.437
18,ATAACCGG,0.0956
19,AGACTATG,0.0431
20,ATGAGTTC,-0.0864
21,CATGGTCG,-0.206
22,GGCAACCC,-0.163
23,AGGCGGCA,-0.158
24,CCTAAGAC,-0.227
25,AACTCGGG,0.0231

row,Sequence,PBM 8-mer E-score
1,AGATGTCG,-0.195
2,ACCCGCGA,-0.277
3,AGTTGTCG,0.125
4,GAAATGGA,-0.0483
5,ACTATGCT,0.0329
6,CAACACTA,0.11
7,AACACATT,0.225
8,CGTGGAGC,-0.123
9,CAGGAATG,-0.102
10,ATCCGTAA,-0.054
11,ACAAGGCG,-0.173
12,TCGCGCAA,0.025
13,TTAAATAA,0.445
14,TGAGTAAA,0.107
15,GGATAGGA,0.0316
16,ACTTGGAT,0.048
17,GAGCAGAA,-0.135
18,CGCGCCTA,-0.103
19,ATCTTGGG,-0.157
20,AACCTGGC,-0.0498
21,CGAGATGA,-0.215
22,CCCCTGGC,-0.322
23,CAGTGAAG,-0.205
24,ACTAATTC,0.227
25,CAAGGTGC,-0.281

row,Sequence,PBM 8-mer E-score
1,GTAGAGTA,0.0731
2,GGTCACAA,-0.0731
3,GACTAATC,-0.0756
4,GTCCCAAC,0.0304
5,ATCCATAA,0.159
6,AAAGGCCC,-0.253
7,AGCATTCA,0.0958
8,GATGCATC,0.0123
9,ACATCAGA,0.00656
10,AGTGATTC,0.0437
11,ACGGTAAT,0.18
12,AACAATAA,0.422
13,ATCACCAT,-0.0433
14,CAACGGGG,-0.0186
15,CCGTCAAG,-0.147
16,GTATCGAC,-0.0329
17,ATTCACCG,0.0854
18,CATTTAAC,0.298
19,CTCGCCAC,-0.144
20,CCCAAGGA,-0.238
21,GCAACACA,-0.0406
22,AACCATGT,0.0619
23,ACCGAATG,-0.0603
24,ACCTCTGA,-0.23
25,GAGAGGGC,-0.304

row,Sequence,PBM 8-mer E-score
1,AAACGCCG,-0.198
2,AGTCTAAC,0.049
3,GTTGGTCA,0.0411
4,AACTAGCA,0.13
5,ACATCCTG,-0.12
6,AGTAATCG,-0.0403
7,AAACATCT,0.177
8,GGTATCCA,-0.0532
9,GCGTTCCC,-0.186
10,AGACTGCT,-0.108
11,AGATCTGC,-0.0672
12,ACTTGATC,0.0758
13,GGACGTTA,-0.103
14,AGCATAAG,-0.186
15,GTCCTACA,-0.0701
16,AATCTGTA,0.109
17,ATCACATC,-0.0184
18,AACGGAGG,-0.22
19,AGACGTGC,-0.122
